# Data published in the supplement of paper PMC4967469.
# Tests used:
# Assay in all cases: Viability of human cancer cell lines after 72 h of drug (GDSC screen)
# SNX-2112 = compound: CC1(C)CC(=O)c2c(C(F)(F)F)nn(-c3ccc(C(N)=O)c(N[C@H]4CC[C@H](O)CC4)c3)c2C1 [SNX-2112]; conditions: top dose 2.56 µM
# Description: (§1)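 Human cancer cell lines in 384-well plates, medium with 10% serum, drug for 72 h over a 256-fold dose range (nine 2-fold or five 4-fold steps up to the top dose). Adherent lines were fixed and stained with the nucleic acid dye Syto60, suspension lines read with resazurin; signal relative to control wells, capped at 0 and 100%. One two-parameter sigmoid per drug and line, fitted in a mixed model over all curves with the slope shared within a line.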
# Vinblastine = compound: CC[C@]1(O)C[C@@H]2CN(CCc3c([nH]c4ccccc34)[C@@](C(=O)OC)(c3cc4c(cc3OC)N(C)[C@H]3[C@@](O)(C(=O)OC)[C@H](OC(C)=O)[C@]5(CC)C=CCN6CC[C@]43[C@@H]65)C2)C1 [Vinblastine]; conditions: top dose 0.1 µM; top dose inferred
# Description: as §1
# PF-562271 = compound: CN(c1ncccc1CNc1nc(Nc2ccc3c(c2)CC(=O)N3)ncc1C(F)(F)F)S(C)(=O)=O [PF-562271]; conditions: top dose 2.56 µM; top dose inferred
# Description: as §1
# Afatinib = compound: CN(C)C/C=C/C(=O)Nc1cc2c(Nc3ccc(F)c(Cl)c3)ncnc2cc1O[C@H]1CCOC1 [Afatinib]
# Description: as §1
# XMD13-2 = compound: O=C(NC1CC1)c1cccc(-c2ccc3c(NC(=O)C4CC4)n[nH]c3c2)c1 [XMD13-2]; conditions: top dose 10.24 µM; top dose inferred
# Description: as §1
# [1] = top dose 0.5 µM, screen: GDSC drug entry 1032
# [2] = top dose 10 µM, screen: GDSC drug entry 1377, top dose inferred
Cell Line,AUC (SNX-2112),IC50 (SNX-2112),AUC (Vinblastine),IC50 (Vinblastine),AUC (PF-562271),IC50 (PF-562271),AUC (Afatinib; [1]),IC50 (Afatinib; [1]),AUC (Afatinib; [2]),IC50 (Afatinib; [2]),AUC (XMD13-2),IC50 (XMD13-2)
"NCI-H2172 (non-small cell lung carcinoma, adherent)",0.97,> 2560 nM,0.938,> 100 nM,0.906,> 2560 nM,0.981,> 500 nM,0.974,> 10000 nM,0.983,> 10200 nM
"NCI-H2227 (small cell lung carcinoma, semi-adherent)",0.584,280 nM,0.828,72.8 nM,0.986,> 2560 nM,0.986,> 500 nM,0.97,> 10000 nM,0.859,> 10200 nM
"NCI-H2291 (lung adenocarcinoma, adherent)",0.984,> 2560 nM,0.881,> 100 nM,0.984,> 2560 nM,0.951,> 500 nM,0.873,> 10000 nM,0.984,> 10200 nM
"NCI-H2342 (lung adenocarcinoma, adherent)",0.981,> 2560 nM,0.93,> 100 nM,0.967,> 2560 nM,0.981,> 500 nM,0.898,> 10000 nM,0.985,> 10200 nM
"NCI-H2347 (lung adenocarcinoma, adherent)",0.982,> 2560 nM,0.849,> 100 nM,0.907,> 2560 nM,0.982,> 500 nM,0.935,> 10000 nM,0.979,> 10200 nM
"NCI-H2405 (lung adenocarcinoma, adherent)",0.883,> 2560 nM,0.952,> 100 nM,0.942,> 2560 nM,0.977,> 500 nM,0.976,> 10000 nM,0.964,> 10200 nM
"NCI-H2444 (non-small cell lung carcinoma, adherent)",0.988,> 2560 nM,0.936,> 100 nM,0.964,> 2560 nM,0.979,> 500 nM,0.987,> 10000 nM,0.988,> 10200 nM
"NCI-H2452 (mesothelioma, adherent)",0.949,> 2560 nM,0.589,11.5 nM,0.889,> 2560 nM,0.982,> 500 nM,0.932,> 10000 nM,0.984,> 10200 nM
"NCI-H3122 (lung adenocarcinoma, adherent)",0.281,37.6 nM,0.423,3.83 nM,0.873,> 2560 nM,0.987,> 500 nM,0.982,> 10000 nM,0.895,> 10200 nM
"NCI-SNU-1 (stomach, suspension)",0.298,42.2 nM,0.905,> 100 nM,0.933,> 2560 nM,0.986,> 500 nM,0.987,> 10000 nM,0.927,> 10200 nM
"NCI-SNU-5 (stomach, suspension)",0.976,> 2560 nM,0.719,26.3 nM,0.989,> 2560 nM,0.989,> 500 nM,0.963,> 10000 nM,0.989,> 10200 nM
"NCI-SNU-16 (stomach, suspension)",0.973,> 2560 nM,0.634,13.9 nM,0.991,> 2560 nM,0.991,> 500 nM,0.986,> 10000 nM,0.979,> 10200 nM
"NEC8 (testis, adherent)",0.315,53.2 nM,0.441,4.42 nM,0.924,> 2560 nM,0.979,> 500 nM,,,0.963,> 10200 nM
"NH-12 (neuroblastoma, adherent)",0.43,100 nM,0.7,24.6 nM,0.904,> 2560 nM,0.958,> 500 nM,,,0.733,3240 nM
"NKM-1 (acute myeloid leukaemia, suspension)",0.085,< 10 nM,0.279,1.44 nM,0.808,1370 nM,0.961,> 500 nM,0.914,> 10000 nM,0.83,6700 nM
"NMC-G1 (glioma, adherent)",0.738,912 nM,0.544,,0.905,> 2560 nM,0.956,> 500 nM,0.97,> 10000 nM,0.879,> 10200 nM
"NOMO-1 (acute myeloid leukaemia, suspension)",0.283,35.4 nM,0.289,1.45 nM,0.904,> 2560 nM,0.93,> 500 nM,0.809,6100 nM,0.889,> 10200 nM
"NOS-1 (osteosarcoma, adherent)",0.514,176 nM,0.777,49.9 nM,0.94,> 2560 nM,0.941,> 500 nM,,,0.862,> 10200 nM
"NTERA-2 cl.D1 (testis, adherent)",0.797,1190 nM,0.468,5.13 nM,0.807,1300 nM,0.952,> 500 nM,0.896,> 10000 nM,0.96,> 10200 nM
"NU-DUL-1 (B-cell lymphoma, suspension)",0.292,47.5 nM,0.343,2.52 nM,0.948,> 2560 nM,0.992,> 500 nM,0.992,> 10000 nM,0.793,3690 nM
"NUGC-4 (stomach, adherent)",0.703,598 nM,0.69,21.3 nM,0.962,> 2560 nM,0.872,477 nM,0.194,76.8 nM,0.982,> 10200 nM
"NY (osteosarcoma, adherent)",0.948,> 2560 nM,0.497,6.12 nM,0.949,> 2560 nM,0.978,> 500 nM,0.89,> 10000 nM,0.974,> 10200 nM

Cell Line,AUC (SNX-2112),IC50 (SNX-2112),AUC (Vinblastine),IC50 (Vinblastine),AUC (PF-562271),IC50 (PF-562271),AUC (Afatinib; [1]),IC50 (Afatinib; [1]),AUC (Afatinib; [2]),IC50 (Afatinib; [2]),AUC (XMD13-2),IC50 (XMD13-2)
"OAW-42 (ovary, adherent)",0.895,> 2560 nM,0.934,> 100 nM,0.971,> 2560 nM,0.945,> 500 nM,0.932,> 10000 nM,0.976,> 10200 nM
"OCI-AML2 (acute myeloid leukaemia, suspension)",0.089,12.9 nM,0.68,17.2 nM,0.957,> 2560 nM,0.995,> 500 nM,0.99,> 10000 nM,0.963,> 10200 nM
"OCI-AML3 (acute myeloid leukaemia, suspension)",0.369,73.8 nM,0.555,8.62 nM,0.989,> 2560 nM,0.979,> 500 nM,0.977,> 10000 nM,0.863,6870 nM
"OCI-AML5 (acute myeloid leukaemia, suspension)",0.307,48.5 nM,0.532,7.59 nM,0.865,1940 nM,0.985,> 500 nM,0.974,> 10000 nM,0.874,8460 nM
"OCI-LY-19 (B-cell lymphoma, suspension)",0.198,22.3 nM,0.461,4.92 nM,0.908,> 2560 nM,0.988,> 500 nM,0.947,> 10000 nM,0.707,2320 nM
"OCI-M1 (acute myeloid leukaemia, suspension)",0.346,67 nM,0.695,18.9 nM,0.993,> 2560 nM,0.994,> 500 nM,0.995,> 10000 nM,0.921,9210 nM
"OCUB-M (breast, adherent)",0.295,46.5 nM,0.707,21.8 nM,0.928,> 2560 nM,0.954,> 500 nM,0.552,851 nM,0.7,2130 nM
"OCUM-1 (stomach, adherent)",0.957,> 2560 nM,0.741,33.3 nM,0.947,> 2560 nM,0.986,> 500 nM,0.985,> 10000 nM,0.976,> 10200 nM
"OE19 (oesophagus, adherent)",0.771,1110 nM,0.719,28.6 nM,0.909,> 2560 nM,0.596,59.6 nM,0.251,108 nM,0.986,> 10200 nM
"OE33 (oesophagus, adherent)",0.894,> 2560 nM,0.68,22 nM,0.892,> 2560 nM,0.969,> 500 nM,0.891,> 10000 nM,0.951,> 10200 nM
"OMC-1 (cervix, adherent)",0.474,135 nM,0.857,87.8 nM,0.988,> 2560 nM,0.944,> 500 nM,0.948,> 10000 nM,0.969,> 10200 nM
"ONS-76 (medulloblastoma, adherent)",0.584,276 nM,0.445,4.37 nM,0.884,> 2560 nM,0.984,> 500 nM,0.976,> 10000 nM,0.83,7150 nM
"OPM-2 (myeloma, suspension)",0.285,45.2 nM,0.895,81.6 nM,0.912,2510 nM,0.994,> 500 nM,0.993,> 10000 nM,0.872,6790 nM
"OS-RC-2 (kidney, adherent)",0.715,866 nM,0.771,56.8 nM,0.881,> 2560 nM,0.948,> 500 nM,0.953,> 10000 nM,0.947,> 10200 nM
"OV-90 (ovary, adherent)",0.641,439 nM,0.677,22.6 nM,0.961,> 2560 nM,0.98,> 500 nM,0.912,> 10000 nM,0.973,> 10200 nM
"OVCAR-4 (ovary, adherent)",0.945,> 2560 nM,0.685,26.7 nM,0.896,> 2560 nM,0.944,> 500 nM,0.846,> 10000 nM,0.93,> 10200 nM
"OVCAR-5 (ovary, adherent)",0.652,461 nM,0.654,18.4 nM,0.788,1370 nM,0.966,> 500 nM,0.912,> 10000 nM,0.946,> 10200 nM
"OVISE (ovary, adherent)",0.837,> 2560 nM,0.556,9.34 nM,0.91,> 2560 nM,0.738,191 nM,0.763,4770 nM,0.896,> 10200 nM
"OVKATE (ovary, adherent)",0.941,> 2560 nM,0.928,> 100 nM,0.979,> 2560 nM,0.953,> 500 nM,0.974,> 10000 nM,0.978,> 10200 nM
"OVMIU (ovary, adherent)",0.471,131 nM,0.567,9.97 nM,0.881,> 2560 nM,0.382,13.6 nM,0.237,87.1 nM,0.962,> 10200 nM
"OVTOKO (ovary, adherent)",0.844,> 2560 nM,0.52,7.21 nM,0.745,998 nM,0.77,244 nM,0.791,5880 nM,0.962,> 10200 nM

# IC50 is the fitted dose that halves viability relative to control wells, and lower means more sensitive; fits outside the tested doses are given as limits. AUC is the area under the same curve over the 256-fold range up to the top dose, as a fraction; values near 1 show little effect. For some assays here: The top dose, if marked as inferred, was derived from the fitted curves, not read from the paper. For some assays here: Drugs with an entry number were screened twice under separate entries, and the two screens often disagree.
